Assay [1] deals with hypoxia-inducible factor 1α (HIF-1α), endogenous (human (endogenous in SW-1990)) (UniProt Q16665). In words: cell-free assay; nuclear extraction from SW-1990 cells expressing Flag-tagged YAP (wild type or S227A) incubated with or without purified ULK1; binding of YAP to HIF-1α read out (Figure S2H).
A further assay has as its target T1, His-tagged ULK2 (UniProt Q8IYT8).
T1 sequence: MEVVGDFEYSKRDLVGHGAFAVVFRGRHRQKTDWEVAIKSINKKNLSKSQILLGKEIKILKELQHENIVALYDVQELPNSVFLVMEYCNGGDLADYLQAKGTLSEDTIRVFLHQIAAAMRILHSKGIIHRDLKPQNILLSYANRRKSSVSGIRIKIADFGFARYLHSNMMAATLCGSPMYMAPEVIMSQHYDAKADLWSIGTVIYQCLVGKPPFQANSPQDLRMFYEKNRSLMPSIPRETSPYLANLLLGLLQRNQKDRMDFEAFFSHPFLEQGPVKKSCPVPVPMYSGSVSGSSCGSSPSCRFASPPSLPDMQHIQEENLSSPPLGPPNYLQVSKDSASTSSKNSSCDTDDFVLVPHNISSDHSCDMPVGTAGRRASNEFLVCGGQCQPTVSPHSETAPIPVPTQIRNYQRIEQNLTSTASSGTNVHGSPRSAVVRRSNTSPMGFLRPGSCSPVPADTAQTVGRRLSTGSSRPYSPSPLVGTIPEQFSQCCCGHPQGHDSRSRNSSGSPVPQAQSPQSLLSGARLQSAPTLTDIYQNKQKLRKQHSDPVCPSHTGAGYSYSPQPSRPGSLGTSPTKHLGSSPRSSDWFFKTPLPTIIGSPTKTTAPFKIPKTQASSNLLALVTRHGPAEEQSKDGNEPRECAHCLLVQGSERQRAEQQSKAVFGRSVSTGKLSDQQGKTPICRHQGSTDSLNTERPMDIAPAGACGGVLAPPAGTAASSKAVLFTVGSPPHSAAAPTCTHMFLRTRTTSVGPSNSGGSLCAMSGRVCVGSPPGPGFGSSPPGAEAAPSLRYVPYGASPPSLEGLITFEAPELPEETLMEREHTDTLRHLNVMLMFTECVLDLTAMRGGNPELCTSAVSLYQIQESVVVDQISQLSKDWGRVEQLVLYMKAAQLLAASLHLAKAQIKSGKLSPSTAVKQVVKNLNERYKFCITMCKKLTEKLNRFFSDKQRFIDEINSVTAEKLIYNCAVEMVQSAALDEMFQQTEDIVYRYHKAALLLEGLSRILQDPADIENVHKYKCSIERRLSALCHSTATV
Kind of assay: pull-down; 100 ng His fusion protein immobilised on Ni-NTA-sepharose beads, incubated overnight at 4 °C with nuclear lysates from hypoxia-stimulated cells expressing Flag-tagged wild-type YAP; blot with anti-Flag; only the target purified.

Chains of the proteins cited; added tags and fusions are not shown.
UniProt Q16665: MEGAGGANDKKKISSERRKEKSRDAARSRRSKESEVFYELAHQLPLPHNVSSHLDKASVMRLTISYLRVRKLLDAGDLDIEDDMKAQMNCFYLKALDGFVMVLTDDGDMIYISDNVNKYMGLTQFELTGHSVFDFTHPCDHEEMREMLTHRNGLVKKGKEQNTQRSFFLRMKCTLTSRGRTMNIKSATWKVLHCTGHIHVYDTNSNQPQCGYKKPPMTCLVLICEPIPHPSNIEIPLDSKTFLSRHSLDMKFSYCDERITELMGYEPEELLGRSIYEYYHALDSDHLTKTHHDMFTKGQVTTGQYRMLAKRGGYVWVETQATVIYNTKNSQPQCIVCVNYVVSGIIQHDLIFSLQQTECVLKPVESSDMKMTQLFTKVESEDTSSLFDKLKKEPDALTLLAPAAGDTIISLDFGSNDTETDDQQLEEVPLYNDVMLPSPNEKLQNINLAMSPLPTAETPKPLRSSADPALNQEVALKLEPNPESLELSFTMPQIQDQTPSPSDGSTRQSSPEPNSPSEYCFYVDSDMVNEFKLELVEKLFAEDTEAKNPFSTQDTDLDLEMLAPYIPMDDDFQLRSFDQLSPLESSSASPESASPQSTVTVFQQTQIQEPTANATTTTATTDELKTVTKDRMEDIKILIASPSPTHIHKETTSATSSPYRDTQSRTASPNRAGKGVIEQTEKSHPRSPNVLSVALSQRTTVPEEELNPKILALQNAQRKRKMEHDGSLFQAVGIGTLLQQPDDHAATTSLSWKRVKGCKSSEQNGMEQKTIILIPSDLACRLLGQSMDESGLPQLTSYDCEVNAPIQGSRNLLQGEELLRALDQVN
UniProt P46937: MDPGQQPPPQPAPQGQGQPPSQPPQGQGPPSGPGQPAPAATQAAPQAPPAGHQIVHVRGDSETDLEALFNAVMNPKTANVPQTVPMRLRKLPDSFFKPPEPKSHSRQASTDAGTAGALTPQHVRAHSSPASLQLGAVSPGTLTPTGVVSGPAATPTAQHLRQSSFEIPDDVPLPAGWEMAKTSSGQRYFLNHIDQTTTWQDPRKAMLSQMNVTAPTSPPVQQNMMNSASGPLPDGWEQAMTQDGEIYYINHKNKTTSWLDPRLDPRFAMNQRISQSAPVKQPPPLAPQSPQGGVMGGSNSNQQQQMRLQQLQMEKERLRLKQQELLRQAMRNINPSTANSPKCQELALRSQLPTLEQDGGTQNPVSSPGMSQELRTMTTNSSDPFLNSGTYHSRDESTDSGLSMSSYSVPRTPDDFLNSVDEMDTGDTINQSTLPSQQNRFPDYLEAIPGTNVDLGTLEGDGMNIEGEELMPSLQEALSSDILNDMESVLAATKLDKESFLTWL

A further assay deals with T2, His-tagged ULK1 (UniProt O75385).
T2 sequence: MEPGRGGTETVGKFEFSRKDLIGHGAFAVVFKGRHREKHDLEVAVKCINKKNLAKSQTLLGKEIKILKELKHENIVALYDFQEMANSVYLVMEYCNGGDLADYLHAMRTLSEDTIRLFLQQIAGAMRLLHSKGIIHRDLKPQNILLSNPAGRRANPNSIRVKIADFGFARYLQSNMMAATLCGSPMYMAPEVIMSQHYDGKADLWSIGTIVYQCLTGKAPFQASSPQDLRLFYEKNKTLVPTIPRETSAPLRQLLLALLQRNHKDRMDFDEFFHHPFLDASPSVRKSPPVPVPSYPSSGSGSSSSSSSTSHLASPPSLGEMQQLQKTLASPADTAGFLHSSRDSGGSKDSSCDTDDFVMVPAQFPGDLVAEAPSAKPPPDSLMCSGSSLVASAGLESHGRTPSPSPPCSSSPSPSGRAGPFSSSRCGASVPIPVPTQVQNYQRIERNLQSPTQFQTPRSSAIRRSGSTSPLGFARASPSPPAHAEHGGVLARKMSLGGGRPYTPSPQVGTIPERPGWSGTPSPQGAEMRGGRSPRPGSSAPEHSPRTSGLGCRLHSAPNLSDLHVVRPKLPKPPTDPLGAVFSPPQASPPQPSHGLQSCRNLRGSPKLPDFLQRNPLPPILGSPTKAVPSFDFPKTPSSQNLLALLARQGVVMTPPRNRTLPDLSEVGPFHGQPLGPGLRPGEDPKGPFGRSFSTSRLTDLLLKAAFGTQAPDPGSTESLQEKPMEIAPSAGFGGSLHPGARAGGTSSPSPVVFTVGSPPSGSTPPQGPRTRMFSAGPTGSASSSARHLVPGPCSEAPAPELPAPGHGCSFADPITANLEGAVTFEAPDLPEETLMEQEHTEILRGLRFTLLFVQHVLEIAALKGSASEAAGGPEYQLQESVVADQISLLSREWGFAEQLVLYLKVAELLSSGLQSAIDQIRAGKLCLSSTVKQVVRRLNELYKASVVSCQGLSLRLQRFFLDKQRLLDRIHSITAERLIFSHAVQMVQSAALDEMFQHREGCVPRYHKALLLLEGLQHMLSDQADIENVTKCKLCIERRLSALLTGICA
Described as above.

The target in assay [2] is hypoxia-inducible factor 1α (HIF-1α), endogenous (human (endogenous in SW-1990)) (UniProt Q16665). Kind of assay: cell-free assay; as a2, with purified ULK1 and CIP (calf intestinal phosphatase) treatment (Figure S2H).
Assay [3] has as its target T3, Unc-51 like kinase 1 (ULK1), endogenous (human (endogenous in SW-1990)) (UniProt O75385).
T3 sequence: T2 sequence
Kind of assay: co-IP; nuclear extractions of hypoxia-stimulated SW-1990 cells, endogenous proteins; YAP precipitated and blotted for ULK1, and reciprocally ULK1 precipitated and blotted for YAP.

Assay [4] addresses T3, Unc-51 like kinase 1 (ULK1), endogenous (human (endogenous in SW-1990)). Kind of assay: co-IP; as a4, SW-1990 cells without hypoxia stimuli.
For assay [5], the target named is hypoxia-inducible factor 1α (HIF-1α), endogenous (human (endogenous in SW-1990)) (UniProt Q16665). In words: co-IP; nuclear extraction of hypoxia-stimulated SW-1990 cells transfected with scrambled, ULK1, ULK2 or ULK1/2 shRNA; HIF-1α immunoprecipitated, blot with anti-YAP; endogenous levels.

These are yes or no findings as the source states them, for the method shown. For some of these results: In cells and extracts the contact can be indirect. Some binding calls cover weakened binding; strength is not graded here. For some of these results: Tags and fused reporters may be left off the sequences shown.

For “Flag-tagged wild-type YAP (from UniProt P46937 1-504)”, the binding entry is “binds” in assay [1], “binds” with His-tagged ULK2, “binds” with His-tagged ULK1 and “no binding (condition: with CIP treatment)” in assay [2].
“yes-associated protein (YAP), endogenous (from UniProt P46937 1-504)”: the binding result in assay [3] was “binds”; in assay [4], “no binding (condition: without hypoxia stimuli)”; in assay [5] it was “binds”.

These data come from article PMC8326115.
